Among all 410,000 compounds or so, about 6,400 (1.6%) were called active. Inconclusive means that the source gave no clear call. Such entries were picked first, then a sample of the others. The call rests on the fitted dose curve; in most records, active means well fitted inhibition curve with a large enough effect; inconclusive means small, poorly fitted or top-dose-only effect; inactive means no such curve, though single readings can be large or run the other way. Potencies beside an inconclusive call are fits to weak or partial responses and may not hold up.
These compounds were tested against Glucagon-like peptide 1 receptor (Homo sapiens) (UniProt P43220) (assay: qHTS of GLP-1 Receptor Inverse Agonists (Inhibition Mode)). Details: HEK293 GLP-1R CRE-luciferase, luminescence, 24 h, GLP-1R form is constitutively active; series mostly up to 38.3 µM.
Chain of UniProt P43220 (P43220 whole entry, looked up): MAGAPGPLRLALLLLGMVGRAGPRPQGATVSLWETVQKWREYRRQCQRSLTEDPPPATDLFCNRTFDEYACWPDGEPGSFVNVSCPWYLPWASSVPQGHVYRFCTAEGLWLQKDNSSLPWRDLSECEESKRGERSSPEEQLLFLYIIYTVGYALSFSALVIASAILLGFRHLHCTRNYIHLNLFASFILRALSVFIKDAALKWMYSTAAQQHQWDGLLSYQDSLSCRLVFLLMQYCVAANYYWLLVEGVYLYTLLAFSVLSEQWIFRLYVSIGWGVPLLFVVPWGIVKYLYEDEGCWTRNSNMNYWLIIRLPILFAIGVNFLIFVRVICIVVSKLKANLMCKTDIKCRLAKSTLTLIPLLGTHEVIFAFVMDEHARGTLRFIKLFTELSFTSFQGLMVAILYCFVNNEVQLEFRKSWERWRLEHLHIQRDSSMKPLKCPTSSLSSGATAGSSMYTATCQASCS
Method in brief: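 HEK293 cells stably co-expressing a cAMP-responsive luciferase reporter and constitutively active GLP-1R were seeded, incubated 12 h, then exposed to compounds for 24 h at 37 C. Luminescence was read 12 min after detection reagent; inverse agonists lower signal.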
Further: nearly all actives have a fitted effect of over 55% in size.
Potency means the concentration at half of the fitted maximal effect; tags describe the fitted curve by direction and shape.

Potency, inconclusive:
Cc1cc(C)c(C(O)c2ncc(-c3ccccc3Cl)[nH]2)c(C)c1 (stereo not given) 11.2 µM [inhibitor, single point], CCCc1ccc(OCC(O)CN2CCCC2)cc1 (stereo not given) 22.4 µM [inhibitor, partial curve, poor fit], Cc1ccc(-c2nc3ccc(Br)cn3c2Cc2ccccc2C(F)(F)F)cc1 10 µM [inhibitor, partial curve, poor fit], OC(CNCc1ccc(F)cc1)(c1ccccc1)c1ccc(F)cc1 (stereo not given) 12.6 µM [inhibitor, single point], C#CCSc1nnc(CSc2nc3ccccc3s2)n1-c1ccccc1 10 µM [inhibitor, partial curve, poor fit], CC(Oc1ccccc1)C(=O)N(CCC1=CCCCC1)c1c(N)n(Cc2ccccc2)c(=O)[nH]c1=O (stereo not given) 28.2 µM [inhibitor, single point], COCCN(CCOC)c1ncnc2c1c(-c1ccccc1)cn2-c1ccc(C)c(Cl)c1 14.1 µM [inhibitor, single point], C/C(=N\Nc1ccc(Cl)c(Cl)c1)c1ccc(-n2ccnc2)cc1 22.4 µM [inhibitor, single point], CN1C(=O)[C@@](O)(c2cn(C)c3ccccc23)c2cc(F)ccc21 14.1 µM [inhibitor, single point], Cc1ccccc1C(=O)c1cccn1CC(=O)NCc1cccc(Cl)c1 7.94 µM [inhibitor, partial curve], CN(C)CCCNc1ncnc2sc(-c3ccccc3)cc12 7.94 µM [inhibitor, partial curve, poor fit], COC(=O)[C@@]12C[C@@H](CC(=O)NCc3ccc(C)o3)C(=O)N(Cc3ccccc3)C1=CCC(C)(C)C2 12.6 µM [inhibitor, single point], O=C(COC(=O)c1cccc(Br)c1)NC(=O)NC1CCCC1 25.1 µM [inhibitor, single point], OC(c1ccccc1)c1nc(-c2ccc(Cl)cc2)cs1 (stereo not given) 12.6 µM [inhibitor, single point], CN(C)CCNc1c2c(nc3ccccc13)CCC2 28.2 µM [inhibitor, single point], CC(=O)N(Cc1ccccc1C)c1cccc(C)c1C 7.08 µM [inhibitor, partial curve, poor fit], COc1ccc(CNC(=O)C(c2ccco2)N(Cc2ccccc2)C(=O)Cc2cccs2)cc1 (stereo not given) 4.47 µM [inhibitor, full curve, poor fit], CN1C(=S)SC(C)(C)C1(C)NO (stereo not given) 28.2 µM [inhibitor, single point], O=C(CN1CCN(CC(=O)Nc2cccc(F)c2)CC1)Nc1ccc(-c2ccccc2)cc1 8.91 µM [inhibitor, partial curve, poor fit], CCOC(=O)C1(CC2CC2)CCN(Cc2ccc(C(=O)OC)cc2)CC1 12.6 µM [inhibitor, partial curve, poor fit], CC(C)CCn1c(NCCc2ccccc2)nc2c1c(=O)n(C)c(=O)n2C 7.94 µM [inhibitor, partial curve, poor fit], Oc1c(Cl)cccc1C=Nc1cc(C(F)(F)F)ccc1N1CCCC1 11.2 µM [inhibitor, partial curve], CC(Cl)C(=O)N1c2ccccc2CCc2ccccc21 (stereo not given) 11.2 µM [inhibitor, single point], O=C(CNc1ccc(Br)cc1)NC(=O)NC1CCCCC1 10 µM [inhibitor, partial curve, poor fit], Cc1cccc(CC(C)NC(=O)c2cc(COc3ccc(F)cc3F)on2)n1 (stereo not given) 7.94 µM [inhibitor, partial curve, poor fit], COc1ccc(Cl)cc1N1C(=O)CN(Cc2cc(OC)c(OC)c(OC)c2)C1=S 11.2 µM [inhibitor, partial curve], COc1ccccc1NC(=O)O/N=C(\N)c1ccccc1 0.501 µM [inhibitor, full curve, poor fit], CCOc1ccc(-c2cnc3cccnn23)cc1 10 µM [inhibitor, single point], c1cnc2ccc(C(c3nnnn3C3CCCC3)N3CCN(c4nc5ccccc5s4)CC3)cc2c1 (stereo not given) 3.55 µM [inhibitor, partial curve, poor fit], Cc1ccc(-c2nnc(OCc3cccnc3)c3ccccc23)cc1 10 µM [inhibitor, partial curve], COC(=O)C1(C)CCCC2(C)c3cc(OC)ccc3C(=O)C(Br)C12 (stereo not given) 10 µM [inhibitor, partial curve, poor fit], COc1ccc(C(=O)NNC(=S)NC(=O)c2cccs2)cc1 11.2 µM [inhibitor, single point], CCOC(=O)C1=C(C)N(C)C(=S)NC1c1ccc(Cl)cc1 (stereo not given) 3.98 µM [inhibitor, full curve], COc1cc(F)c(C2=CC(=O)C[C@H](c3ccc(F)cc3)C2)cc1F 10 µM [inhibitor, partial curve, poor fit], CC(C)(C)c1cc(CCC(=O)NNC(=S)NC(=O)c2ccccc2)cc(C(C)(C)C)c1O 28.2 µM [inhibitor, single point]

Potency, inactive:
CCCCNC(=O)C(CC)Sc1nc2ccccc2c(=O)n1CCc1ccc(OC)c(OC)c1 (stereo not given), CCc1ccc(S(=O)(=O)c2nnn3c2nc(NCCNC(C)=O)c2cc(Cl)ccc23)cc1, CCOC(=O)c1c(NC(=O)CSc2cn(CCNC(=O)c3ccccc3F)c3ccccc23)sc2c1CCCC2, O=c1[nH]c2ccccc2nc1NCCN1CCOCC1, O=C(COC(=O)c1ccc(F)cc1)NCC1CCCCC1

From PubChem BioAssay AID624417 (National Center for Advancing Translational Sciences (NCATS), 2012)
